From PubChem BioAssay AID651820 (National Center for Advancing Translational Sciences (NCATS), 2012)
Out of some 340,000 compounds screened, about 12,000 (3.5%) were called active. Inconclusive means that the source gave no clear call. Such entries were picked first, then a sample of the others. Calls come from the whole dose curve; as a rule, active = well fitted inhibition curve with a large enough effect; inconclusive = small, poorly fitted or top-dose-only effect, or another doubt; inactive = no such curve, though single readings can be large or run the other way. No potency is given beside an inconclusive call; the fits are too rough.

Experiment: qHTS Assay for Inhibitors of Hepatitis C Virus (HCV)
Conditions: Huh7.5.1 HCVcc-Cre (HCVcc is cell-culture hepatitis C virus) infection, luciferase reporter, 44 h; activity change, negative = inhibition: at 41.8 µM (top of the series) unless noted
In short: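 Infectious HCV cell culture screen: compound-treated cells (1,000/well, pre-plated 4 h) are infected with HCVcc-Cre at roughly 0.5 moi and grown 44 h. Infection is quantified by luciferase signal after 15 min substrate incubation at room temperature.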
% is set by controls: 0 for no effect and ±100 for the full control effect; potency is the fitted concentration of half-maximal effect; tags give direction and shape of the fitted curve.

Structure (SMILES)	Potency	activity change, negative = inhibition
COc1ccc(-n2nc(C(=O)NCC(=O)Nc3cc(OC)c(OC)c(OC)c3)c3ccccc3c2=O)cc1Cl	inconclusive [inhibitor, partial curve]	–
O=C(CCC1N=C2c3ccccc3N=C(SCc3cccc(Cl)c3)N2C1=O)NCc1ccco1 (stereo not drawn)	inconclusive [inhibitor, single point]	–
O=C(CSc1nc2c(c(C(F)(F)F)n1)CCc1ccccc1-2)NCc1ccco1	inconclusive [inhibitor, full curve, poor fit]	–
CC1CC(=O)N(c2ccc(N(C)Cc3ccccc3)c([N+](=O)[O-])c2)C1=O (stereo not drawn)	–	inactive: 12%
Fc1ccc(CN2C3=NCCCN3c3ccccc32)cc1	inconclusive [inhibitor, single point]	–
CCOC(=O)N1CCN(C(=O)C(=O)Nc2sc3c(c2C(=O)O)CC(C)(C)OC3)CC1	–	inactive: 12.8%
O=C(NCc1cccs1)C1CC(c2ccccc2O)=NO1 (stereo not drawn)	–	inactive: -27.3%
CC(=O)N1c2ccc(S(=O)(=O)N3CCCC3C(=O)Nc3cccc(F)c3)cc2CC1C (stereo not drawn)	–	inactive: -11.7%
CN(C)c1ccc(NC(=O)/C=C/c2c(Cl)cccc2Cl)cc1	inconclusive [inhibitor, partial curve]	–
CCCCc1nc2n[nH]c(N)c2c2c1CCC2	inconclusive [inhibitor, single point]	–
CC1(C)OC(c2ccccc2)=C/C(=C/C=Nc2ccccc2)O1	inconclusive [inhibitor, single point]	–
CCCCN(C(=O)c1cccc(S(=O)(=O)N2CC(C)OC(C)C2)c1)c1c(N)n(CC(C)C)c(=O)[nH]c1=O (stereo not drawn)	–	inactive: 3.47%
CCCc1cc(=O)[nH]c(SCc2cccc(C)c2)n1	inconclusive [inhibitor, single point]	–
CN(C)c1ccc(/C=C(/C#N)C(=O)Nc2nc3c(s2)CCN(Cc2ccccc2)C3)cc1	inconclusive [inhibitor, single point]	–
CC1=NN(c2ccccc2)C(=O)C1N=Nc1ccc(N)cc1 (stereo not drawn)	inconclusive [inhibitor, full curve]	–
CC1CCN(C(=O)c2ccc(CSc3nc4ccncc4n3Cc3ccc(F)cc3)cc2)CC1	inconclusive [inhibitor, single point]	–
CCOc1ccc(-c2nnn(CC(=O)NCc3ccccc3)n2)cc1	inconclusive [inhibitor, single point]	–
O=C1/C(=C/c2ccc(F)cc2)Oc2cc(OC(=O)N3CCOCC3)ccc21	inconclusive [inhibitor, single point]	–
Cc1cccc(NCC(O)Cn2cnc3c2c(=O)n(C)c(=O)n3C)c1 (stereo not drawn)	inconclusive [inhibitor, partial curve]	–
O=C(CNS(=O)(=O)c1ccccc1)N1CCc2ccccc2C1	–	inactive: 10.4%
C/C(=N\OCc1nc2ccccc2c(=O)n1/N=C/c1cc(C)cc([N+](=O)[O-])c1O)c1ccccc1	–	inactive: 8.58%
O=C(CCc1ccc(S(=O)(=O)N2CCOCC2)cc1)Nc1ccccc1F	inconclusive [inhibitor, single point]	–

Structure (SMILES)	Potency	activity change, negative = inhibition
CC(C)(C)[C@H]1C=C(C(=O)N2CCN(Cc3ccccc3)CC2)O[C@@H](OCc2ccc(CO)cc2)C1	–	inactive: 20%
COc1ccccc1N(CC(=O)Nc1ccccc1)S(=O)(=O)c1cccs1	inconclusive [inhibitor, single point]	–
CCCCn1c(N)c(N(CCOC)C(=O)C2CCN(S(=O)(=O)c3ccc(C)cc3)CC2)c(=O)[nH]c1=O	inconclusive [inhibitor, single point]	–
CN(Cc1cccs1)c1ncnc2sccc12	active: 11.2 µM	–
CCN1CCN(CC(=O)Nc2cc(C)c(C)cc2[N+](=O)[O-])CC1	inconclusive [inhibitor, partial curve]	–
COCCNc1nc2nonc2nc1N1C[C@H]2CC[C@H]1C2	–	inactive: 15.9%
Cc1cc(C)c2nc(NNC(=O)c3ccc(S(=O)(=O)N4CC(C)CC(C)C4)cc3)sc2c1 (stereo not drawn)	active: 7.08 µM	–
CC(C)c1ccc(-c2nc(N3CCCC3)nc3n[nH]c(N)c23)cc1	inconclusive [inhibitor, partial curve, poor fit]	–
CCOC(=O)c1c(NC(=O)Cn2cnc([N+](=O)[O-])n2)sc(C)c1C	–	inactive: -27.5%
COc1ccc(-c2csc(=NCCO)n2-c2ccccc2)cc1	inconclusive [inhibitor, partial curve, poor fit]	–
O=C(NCC1CCCO1)/C(=C\c1ccccc1)NC(=O)c1ccccc1 (stereo not drawn)	inconclusive [inhibitor, single point]	–
COC(=O)C1=CN(c2ccc(OC)cc2)C=C(C(=O)OC)C1c1ccc(C)c([N+](=O)[O-])c1	inconclusive [inhibitor, single point]	–
Cc1nn2c(NCCOCCO)c3c(nc2c1-c1ccccc1)CCC3	–	inactive: -29.5%
CCc1cc(=O)oc2c(C)c(OS(C)(=O)=O)ccc12	–	inactive: 13.1%
COc1ccc(C2Nc3ccccc3C(=O)N2c2ccc(C)cc2)cc1Cn1nc(C)c([N+](=O)[O-])c1C (stereo not drawn)	inconclusive [inhibitor, partial curve, poor fit]	–
COc1ccc(CCNC(=O)C2CCN(C(=O)c3ccc(OC)c(OC)c3)CC2)cc1	inconclusive [inhibitor, single point]	–
Cc1cc(NS(=O)(=O)c2ccc(NC(=O)COc3ccc(Cl)c(C)c3)cc2)no1	–	inactive: 11.5%
COCc1c(C#N)c(NCCc2ccc(F)cc2)nc(C)c1[N+](=O)[O-]	inconclusive [inhibitor, single point]	–
OC1CCCCC1Sc1nc2ccccc2s1 (stereo not drawn)	inconclusive [inhibitor, single point]	–
C=CCOCCN(C)C1=NS(=O)(=O)c2cc([N+](=O)[O-])ccc21	inconclusive [inhibitor, single point]	–
CCc1ccc(CNC(=O)c2cc3c(C)nc4ccccc4c3o2)cc1	active: 11.2 µM	–
